# Assay results: PubChem BioAssay AID1347165 (National Center for Advancing Translational Sciences (NCATS), 2019)
# Among all 220,000 compounds or so, about 5,700 (2.6%) were called active. Inconclusive results, whose numbers are uncertain, are shown with a selection of clear calls. Calls come from the whole dose curve; as a rule, active = well fitted inhibition curve with a large enough effect; inconclusive = small, poorly fitted or top-dose-only effect; inactive = no such curve, though single readings can be large or run the other way. Potencies beside an inconclusive call are fits to weak or partial responses and may not hold up.
# Target: Lysine-specific demethylase 5B (Homo sapiens) (UniProt Q9UGL1)
# Test: Primary screen for KDM5B Histone Demethylases FDH-coupled qHTS; note: nearly all actives have a fitted effect of over 70% in size; for activity change, negative = inhibition: 0% is about no effect
# Conditions: FDH-coupled NADH fluorescence (FDH is formaldehyde dehydrogenase); activity change, negative = inhibition: at 57.7 µM (top of the series) unless noted
# Summary of the method: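 Here, H3K4me3 peptide (12.5 µM in substrate mix) is demethylated by KDM5BΔAP, 200 nM final, after 10 min compound exposure. Formaldehyde product is coupled through FDH (0.25 U/mL in mix) to NADH fluorescence; 30-min ΔRFU feeds dose-response curves.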
# Potency is the fitted concentration of half-maximal effect; tags give direction and shape of the fitted curve.
# Sequence of UniProt Q9UGL1 (Q9UGL1 whole entry, looked up): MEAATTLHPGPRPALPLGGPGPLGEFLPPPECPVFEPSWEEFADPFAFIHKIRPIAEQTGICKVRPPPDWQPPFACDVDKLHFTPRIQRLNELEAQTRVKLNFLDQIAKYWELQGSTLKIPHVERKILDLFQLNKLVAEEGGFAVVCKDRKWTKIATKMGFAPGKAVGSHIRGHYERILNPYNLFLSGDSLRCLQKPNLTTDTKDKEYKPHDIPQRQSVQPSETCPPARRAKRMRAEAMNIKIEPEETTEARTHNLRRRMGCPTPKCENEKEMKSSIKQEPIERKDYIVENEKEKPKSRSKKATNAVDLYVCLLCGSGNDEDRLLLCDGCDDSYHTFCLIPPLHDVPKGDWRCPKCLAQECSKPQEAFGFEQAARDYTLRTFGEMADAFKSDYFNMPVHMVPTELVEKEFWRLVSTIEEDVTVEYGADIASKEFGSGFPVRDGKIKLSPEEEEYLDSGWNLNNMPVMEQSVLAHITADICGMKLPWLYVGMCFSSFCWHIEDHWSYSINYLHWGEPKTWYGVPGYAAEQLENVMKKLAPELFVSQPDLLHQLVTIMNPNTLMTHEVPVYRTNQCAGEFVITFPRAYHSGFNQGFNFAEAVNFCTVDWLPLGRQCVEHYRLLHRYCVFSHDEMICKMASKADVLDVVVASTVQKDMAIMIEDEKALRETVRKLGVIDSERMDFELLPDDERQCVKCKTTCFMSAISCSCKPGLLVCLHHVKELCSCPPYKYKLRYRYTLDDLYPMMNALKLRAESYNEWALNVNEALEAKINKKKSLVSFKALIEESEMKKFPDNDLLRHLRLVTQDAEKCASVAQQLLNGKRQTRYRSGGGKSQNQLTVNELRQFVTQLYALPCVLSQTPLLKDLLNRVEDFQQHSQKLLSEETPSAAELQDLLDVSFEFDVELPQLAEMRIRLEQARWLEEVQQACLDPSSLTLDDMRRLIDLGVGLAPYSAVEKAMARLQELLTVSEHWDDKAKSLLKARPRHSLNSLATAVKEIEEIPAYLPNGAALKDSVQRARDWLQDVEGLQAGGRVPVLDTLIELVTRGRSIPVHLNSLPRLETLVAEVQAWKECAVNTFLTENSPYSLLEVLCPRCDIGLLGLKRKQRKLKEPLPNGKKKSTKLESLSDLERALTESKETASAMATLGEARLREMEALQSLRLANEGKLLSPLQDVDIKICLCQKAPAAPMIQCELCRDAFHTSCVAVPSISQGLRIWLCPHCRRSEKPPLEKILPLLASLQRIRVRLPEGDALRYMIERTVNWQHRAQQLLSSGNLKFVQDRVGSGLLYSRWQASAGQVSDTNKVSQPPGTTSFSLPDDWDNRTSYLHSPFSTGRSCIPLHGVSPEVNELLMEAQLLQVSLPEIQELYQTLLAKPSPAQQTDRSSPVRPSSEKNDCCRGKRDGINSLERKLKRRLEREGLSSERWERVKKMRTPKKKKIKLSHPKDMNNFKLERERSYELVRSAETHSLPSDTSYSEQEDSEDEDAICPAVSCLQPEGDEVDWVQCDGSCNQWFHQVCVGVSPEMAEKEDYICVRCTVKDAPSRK
SMILES,"activity change, negative = inhibition",Potency
C/C(=N\NC(=O)c1cccc(Br)c1)c1cccs1,inactive: 14%,–
COc1cccc(C(=O)/C(C#N)=C\c2ccccc2C(F)(F)F)c1,–,"inconclusive: 39.8 µM [inhibitor, single point]"
COc1ccc(C(C)=O)cc1COC(=O)COc1cccc(Br)c1,inactive: 1.39%,–
CCOc1cccc2sc(N(Cc3cccnc3)C(=O)C3CCCCC3)nc12,–,"inconclusive: 2.82 µM [inhibitor, full curve, poor fit]"
COc1ccc(N2C(=O)CN(C(=O)c3cc(F)c(F)cc3F)CC2(C)C)cc1,inactive: -9.92%,–
Cc1ccc(CCNC(=O)C2CCN(c3nnc(C)c4c(C)n(-c5ccccc5)nc34)CC2)cc1,–,"inconclusive: 25.1 µM [inhibitor, partial curve, poor fit]"
COc1ccc(-c2cc(C(=O)Oc3cccc(C)c3)c3ccccc3n2)cc1,–,"inconclusive: 31.6 µM [inhibitor, partial curve, poor fit]"
COc1ccccc1CNC(=O)c1ccc(Cn2ccn3nc4c(c3c2=O)CCCC4)cc1,–,"inconclusive: 39.8 µM [inhibitor, single point]"
Cc1cc(C)cc(-n2ncc3c(NCC4CCCO4)ncnc32)c1 (stereo unspecified),–,"inconclusive: 31.6 µM [inhibitor, partial curve, poor fit]"
Cc1ccc2ncc(C(=O)NCc3ccccc3Cl)c(=O)n2c1,–,"inconclusive: 7.08 µM [inhibitor, partial curve, poor fit]"
COCc1cn(C[C@H]2C[C@@H](NCc3cccnc3)[C@H](O)[C@@H]2O)nn1,–,active: 35.5 µM
CC1CCN(c2ccc(NC(=O)c3cccc(Cl)c3)cc2C(=O)O)CC1,–,"inconclusive: 39.8 µM [inhibitor, single point]"
COc1ccc2[nH]c3c(c2c1)CCNC31CCN(C(=O)c2ccc(OC)nc2)CC1,–,"inconclusive: 31.6 µM [inhibitor, partial curve, poor fit]"
COc1cc(NS(=O)(=O)c2cccc(Cl)c2C)cc2sc(NC(=O)c3ccccc3)nc12,–,"inconclusive: 39.8 µM [inhibitor, single point]"
CC(C(=O)N(C)CC(=O)Nc1ccccc1C(F)(F)F)N1CCN(Cc2ccccc2)CC1 (stereo unspecified),inactive: -3.93%,–
O=C(NCC1CCN(c2cc(-c3ccc(F)cc3)[nH]n2)CC1)c1ccc[nH]c1=O,inactive: -21.9%,–
COC1CCN(CC(=O)Nc2cccc(C(=O)Nc3cccc(C(F)(F)F)c3)c2)CC1,inactive: 6.63%,–
COc1cccc(/C=N/NC(=O)CCc2c(C)n[nH]c2C)c1O,–,"inconclusive: 31.6 µM [inhibitor, partial curve, poor fit]"
COc1ccc(-c2nc(C3CC3)nc3c2CCN(Cc2cccnc2)CC3)cc1,–,"inconclusive: 28.2 µM [inhibitor, single point]"
Cc1cccc(NC(=O)CC2(C(=O)O)CCCC2)c1C,inactive: -10.9%,–
Cc1csc(CNC(=O)c2ccc(CNC(=O)c3cccs3)cc2)n1,inactive: 0.129%,–
CCOC(=O)c1c(-c2ccccc2)oc2ccc(NS(=O)(=O)c3ccc(OC)cc3)cc12,–,"inconclusive: 31.6 µM [inhibitor, partial curve, poor fit]"

SMILES,"activity change, negative = inhibition",Potency
CC(C)S(=O)(=O)N1CC[C@H]2C(=O)NCCCCCCN(Cc3ccncc3)[C@@H]2C1,–,"inconclusive: 39.8 µM [inhibitor, single point]"
CCSc1nc2c(c(=O)n(Cc3ccccc3Cl)c(=O)n2C)n1C,–,"inconclusive: 20 µM [inhibitor, partial curve, poor fit]"
CC(NC(=O)c1cccc(N(C)C)c1)c1ccc(Cl)s1 (stereo unspecified),–,"inconclusive: 22.4 µM [inhibitor, single point]"
CC(C)c1ccc(/C=C(/C#N)C(=O)Nc2cccc3ncccc23)cc1,–,"inconclusive: 28.2 µM [inhibitor, partial curve, poor fit]"
COC[C@@H]1[C@H](NC(=O)c2ccc(Cn3nnnc3C)cc2)[C@@H]2CCO[C@H]12,–,"inconclusive: 2.82 µM [inhibitor, partial curve, poor fit]"
CCOC(=O)c1ccc2c(c1)N(Cc1cccc(OC)c1)C(=O)c1ccccc1S2(=O)=O,–,"inconclusive: 35.5 µM [inhibitor, single point]"
CCCn1c(=O)n(C)c(=O)c2c(SCC(=O)Nc3ccc4c(c3)OCO4)nc(C3CC3)nc21,inactive: 10.5%,–
O=C(CSc1nc(-c2ccc(F)cc2)cc(C(F)(F)F)n1)NCc1ccccc1,–,"inconclusive: 17.8 µM [inhibitor, partial curve, poor fit]"
O=C(Nc1cccc(F)c1)N1CCC(Oc2ncccc2C(=O)N2CCCCC2)C1 (stereo unspecified),inactive: -13.9%,–
CC1(C)CCC2=C(C1=O)C(c1ccc(O)cc1)C1=C(CCC(C)(C)C1=O)O2,inactive: 15.5%,–
CCOc1cc(C(=O)Nc2ccc3oc(-c4ccc(F)cc4Cl)nc3c2)cc(OCC)c1OCC,–,"inconclusive: 1.78 µM [inhibitor, full curve, poor fit]"
Cc1ccsc1CN1CCCC(CO)CCNC(=O)CC1 (stereo unspecified),–,"inconclusive: 25.1 µM [inhibitor, single point]"
Cc1cc(C(=O)N2CCCC(C(=O)Nc3cccc(-c4cc5ccccc5[nH]4)c3)C2)nn1C (stereo unspecified),–,active: 31.6 µM
O=C(C1CCCN(C2CCN(c3ncnc4sccc34)CC2)C1)N1CCCC1 (stereo unspecified),–,"inconclusive: 14.1 µM [inhibitor, partial curve]"
CC(C)c1nnc(NC(=O)c2nn(C(C)C)c(=O)c3ccccc23)s1,inactive: 7.7%,–
COc1ccc(-c2[nH]nc3ncc(-c4cccc(F)c4)nc23)c(C)c1,inactive: -18.5% [at 86.2 µM],–
Cc1ccc(CS(=O)(=O)c2cn(CC(=O)N(C)c3ccccc3)c3ccccc23)cc1,–,"inconclusive: 2.82 µM [inhibitor, partial curve, poor fit]"
COc1ccccc1Nc1nn2c(=O)c3ccc(C(=O)N4CCC(C)CC4)cc3nc2s1,–,"inconclusive: 22.4 µM [inhibitor, partial curve, poor fit]"
Cn1ncc2c(C(=O)N3CCC(C#N)CC3)cc(-c3cc(Cl)cc(Cl)c3)nc21,inactive: -13.4% [at 115 µM],–
CC1CCN(C(=O)CSc2n[nH]c(-c3cc(Br)ccc3O)n2)CC1,–,"inconclusive: 22.4 µM [inhibitor, partial curve, poor fit]"
O=C(C1CCCN(C2CCN(c3ncccn3)CC2)C1)N1CCOCC1 (stereo unspecified),–,active: 20 µM
COc1ccccc1CNC(=O)CC1N=C2c3ccccc3N=C(SCC(=O)Nc3ccc(F)cc3)N2C1=O (stereo unspecified),–,"inconclusive: 31.6 µM [inhibitor, single point]"

SMILES,"activity change, negative = inhibition",Potency
COCc1cc(C)n(CC(=O)Nc2cc(C)c(C)cc2Br)c(=O)c1C#N,–,"inconclusive: 22.4 µM [inhibitor, partial curve, poor fit]"
O=C(CCn1cnc2onc(-c3ccc(F)cc3)c2c1=O)N1CCN(c2ccc(F)cc2)CC1,–,"inconclusive: 39.8 µM [inhibitor, single point]"
CS(=O)(=O)N(Cc1csc(-c2cccs2)n1)C1CCN(C(=O)c2cccc(Cl)c2)CC1,–,"inconclusive: 22.4 µM [inhibitor, single point]"
COc1ccc(-c2nn(-c3ccccc3)cc2CN2CCCC(CO)C2)c(F)c1 (stereo unspecified),–,"inconclusive: 10 µM [inhibitor, partial curve, poor fit]"
O=c1cc(-c2ccccn2)oc2c(-c3cccc(CO)c3)nccc12,–,"inconclusive: 35.5 µM [inhibitor, partial curve, poor fit]"
CCN(CC)c1sc(S(=O)(=O)CC)nc1S(=O)(=O)c1ccc(C)cc1,inactive: 10.9%,–
Cc1ccc(C(Nc2ccccn2)c2ccc3cccnc3c2O)cc1 (stereo unspecified),–,"inconclusive: 35.5 µM [inhibitor, single point]"
Cc1ccccc1-c1nc(N2CCOCC2)cc2c1CN(Cc1ccccc1)C2=O,–,active: 31.6 µM
COc1ccc(NC(=O)c2ccccc2Cl)c2cccnc12,inactive: -1.44%,–
Cc1ccc(NC(=O)c2oc3ccccc3c2NC(=O)Cc2cccs2)cc1,–,"inconclusive: 39.8 µM [inhibitor, single point]"
Cc1cc(Nc2ccccc2C)c2c([N+](=O)[O-])cc(C)c(C)c2n1,inactive: 20.4%,–
COC(=O)CSc1nc2c(c(=O)[nH]c(=O)n2C)n1Cc1ccccc1,inactive: 2.92%,–
O=C1C[C@@H]2CCN(Cc3ccccc3)C[C@@H]2CCN1C1CCCCC1,inactive: 19.6% [at 86.2 µM],–
Cc1ccc(-n2c(=O)c3c(cc(C)n3C)n(CC(=O)Nc3ccccc3F)c2=O)cc1,inactive: 26%,–
Cc1ccc(/C=C/c2onc(C)c2S(=O)(=O)N2CCC(C(=O)N3CC(C)Oc4ccccc43)CC2)cc1 (stereo unspecified),–,"inconclusive: 1.41 µM [inhibitor, partial curve, poor fit]"
O=C(Nc1ccc(F)cc1)Nc1cccc(-c2ccc(N3CCOCC3)nn2)c1,–,"inconclusive: 22.4 µM [inhibitor, partial curve, poor fit]"
O=C(CN1C(=O)NC2(CCCC2)C1=O)Nc1cc(Cl)cc2cccnc12,–,"inconclusive: 28.2 µM [inhibitor, single point]"
Cc1nn(-c2ccc(F)cc2)c(C)c1[C@@H]1C=C[C@@H](NCc2ccc(C(C)C)cc2)C1,–,"inconclusive: 25.1 µM [inhibitor, partial curve, poor fit]"
Fc1ccccc1OCCC1CCNC1 (stereo unspecified),–,"inconclusive: 6.31 µM [inhibitor, single point]"
Cn1ncc2c(C(=O)NCCc3ccc(Cl)cc3)cc(-c3ccc(Cl)cc3Cl)nc21,–,active: 70.8 µM
COc1ccc(NC(=O)Cn2c(N(C)Cc3ccccc3)nc(C)cc2=O)cc1,inactive: -1.95%,–
C[C@@H]1OC(C2CCCCC2)N(C)[C@H]2C[C@H]3c4[nH]c5cccc(-c6cccc(F)c6)c5c4CCN3C(=O)[C@@H]12 (stereo partly specified),–,"inconclusive: 39.8 µM [inhibitor, single point]"
